88 compounds from article PMC4336329 (PLoS ONE, 2015) can be followed below.

Hit rate of the full screen: of about 310,000 compounds, about 14,000 (4.5%) showed an effect of 50% or more. Effects have a minus sign here. This is one part of the list.
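Further: peak tail current of the secondary pulse compared with the same well before compound.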

human ether-à-go-go-related gene (hERG) potassium channel, sequence (Q12809 whole entry, looked up): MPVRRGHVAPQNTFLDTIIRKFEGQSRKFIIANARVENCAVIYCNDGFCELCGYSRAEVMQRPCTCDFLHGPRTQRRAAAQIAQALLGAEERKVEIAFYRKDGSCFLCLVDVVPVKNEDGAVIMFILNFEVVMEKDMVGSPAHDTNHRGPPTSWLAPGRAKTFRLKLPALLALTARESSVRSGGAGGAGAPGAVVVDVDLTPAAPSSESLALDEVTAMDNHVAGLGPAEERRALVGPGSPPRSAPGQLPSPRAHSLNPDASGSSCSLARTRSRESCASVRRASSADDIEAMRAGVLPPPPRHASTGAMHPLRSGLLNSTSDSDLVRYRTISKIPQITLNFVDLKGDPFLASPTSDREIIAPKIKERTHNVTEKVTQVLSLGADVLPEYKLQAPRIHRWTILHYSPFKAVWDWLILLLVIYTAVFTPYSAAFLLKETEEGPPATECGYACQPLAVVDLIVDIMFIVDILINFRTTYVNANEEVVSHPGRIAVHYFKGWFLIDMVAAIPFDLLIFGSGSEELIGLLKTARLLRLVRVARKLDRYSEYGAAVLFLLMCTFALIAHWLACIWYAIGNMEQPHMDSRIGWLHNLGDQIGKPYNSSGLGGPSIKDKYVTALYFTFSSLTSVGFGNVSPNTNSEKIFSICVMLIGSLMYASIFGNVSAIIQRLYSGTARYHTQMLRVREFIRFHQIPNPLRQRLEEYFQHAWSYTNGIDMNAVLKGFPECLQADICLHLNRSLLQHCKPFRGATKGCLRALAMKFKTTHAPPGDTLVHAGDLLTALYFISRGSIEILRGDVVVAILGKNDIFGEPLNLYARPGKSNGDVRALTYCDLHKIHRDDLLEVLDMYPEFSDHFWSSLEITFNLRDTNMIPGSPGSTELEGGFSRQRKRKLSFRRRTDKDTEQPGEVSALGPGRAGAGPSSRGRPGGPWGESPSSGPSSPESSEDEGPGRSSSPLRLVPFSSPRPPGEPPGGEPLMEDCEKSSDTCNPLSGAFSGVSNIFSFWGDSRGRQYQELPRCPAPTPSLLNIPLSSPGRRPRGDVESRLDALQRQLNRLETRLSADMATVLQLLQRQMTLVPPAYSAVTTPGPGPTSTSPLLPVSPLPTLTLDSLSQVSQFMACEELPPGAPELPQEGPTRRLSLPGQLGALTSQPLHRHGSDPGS

The assay concerns the target human ether-à-go-go-related gene (hERG) potassium channel (human, UniProt Q12809). The assay can be described thus: primary screen, population patch clamp on CHO cells stably expressing hERG.
As for `Cc1ccc(NC(=O)CCC(=O)c2cccs2)nc1`, the “hERG current change (%, negative = inhibition) at 10uM” value was -0.376%. The figure for `CCc1ccccc1NC(=O)NNC(=O)CCc1ccccc1` is 7.74%. The figure for `Cc1nn(C(=O)c2cc3sccc3[nH]2)c(C)c1C` is 7.83%; for `CSc1ncccc1C(=O)Nc1nccs1` it is -22.8%. The same measure for `CC(=O)Nc1ccc(NC(=O)C2CCCN2C(=O)Nc2ccc(F)cc2)cc1` (stereo not shown): 3.44%; for `O=C1NC(c2cccc(Cl)c2)Nc2ccccc21` (stereo not shown): 21.8%. `O=C(NCCN1C(=O)S/C(=C\c2cccs2)C1=O)c1ccc(=O)[nH]c1`: the “hERG current change (%, negative = inhibition) at 10uM” value is on record as -15.5%. The same measure for `Cc1[nH]c(=O)[nH]c(=O)c1S(=O)(=O)N1CCC(C(=O)NC(C)c2ccccc2)CC1` (stereo not shown): 7.02%; for `Cc1nc(CSc2ccc(Cl)cc2)cs1`: 13.9%. The same measure for `Cc1cccc(N2C(=O)c3cccc4c(N(C)CCO)ccc(c34)C2=O)c1`: -16.1%; for `CCc1nc(SCc2ccccc2C#N)n[nH]1`: 13.4%. The same measure for `Cn1nnnc1SCC(=O)N(C1CCCCC1)C1CCCCC1`: 2.23%. On to `C=C(C)Cn1c(=O)c2c(nc3n2CCN3c2cccc(Cl)c2C)n(C)c1=O`, for which the “hERG current change (%, negative = inhibition) at 10uM” value is given as -3.63%.

With `O=C(NCCc1ccco1)C(=O)NCC1OCCCN1S(=O)(=O)c1ccc(Cl)cc1` (stereo not shown), the “hERG current change (%, negative = inhibition) at 10uM” value is -0.416%. Consider `CNc1ccccc1C(=O)OC(C)C(=O)Nc1ccc(S(=O)(=O)N2CCCC2)cc1` (stereo not shown), for which the “hERG current change (%, negative = inhibition) at 10uM” value was found to be 12.4%. As to `CCOCc1nnc(NC(=O)c2ccc(OC)cc2)s1`, the “hERG current change (%, negative = inhibition) at 10uM” value is listed as 7.73%. The same measure for `COC(=O)C1Cc2ccccc2CN1C(=O)CCl` (stereo not shown): 3.84%; for `CCCCCN=C(N)N/N=C/c1c[nH]c2ccc(OC)cc12.O=C(O)/C=C\C(=O)O`: -37.9%. The figure for `CNC(=O)CSc1nnc(C2CC2)n1-c1ccccc1` is 11.8%. In the case of `O=C1c2ccccc2C(=O)N1c1ccccc1S(=O)C(F)(F)F` (stereo not shown), the “hERG current change (%, negative = inhibition) at 10uM” value is -4.51%.

With `Cl.O=C(Nc1ccc(Br)cn1)c1ccc(Br)s1`, the “hERG current change (%, negative = inhibition) at 10uM” value was 20.2%.

Turning to `COc1cccc(C(=O)NC2CCN(CC(=O)NCc3ccccc3F)CC2)c1`, the “hERG current change (%, negative = inhibition) at 10uM” value is given as -5.7%.

In the case of `Cc1n[nH]c(=S)n1/N=C/c1cccc(OCc2ccccc2)c1`, the “hERG current change (%, negative = inhibition) at 10uM” value was 22.3%. In the case of `O=C(COC(=O)c1cccc(S(=O)(=O)N2CCOCC2)c1)c1ccccc1`, the “hERG current change (%, negative = inhibition) at 10uM” value amounted to 10.8%.

`O=C(Oc1ccccc1C(=S)N1CCOCC1)c1cccc([N+](=O)[O-])c1`: the “hERG current change (%, negative = inhibition) at 10uM” value is 9.29%. For `CCOc1ccc(C)cc1S(=O)(=O)n1ccnc1`, the “hERG current change (%, negative = inhibition) at 10uM” value came to 6.45%. The same measure for `CN(C(=O)COC(=O)c1cc(S(=O)(=O)N(C)C)ccc1Cl)C1CCS(=O)(=O)C1` (stereo not shown): 2.56%; for `Cc1ccc(NC(=O)CN2CCC(NC(=O)Cc3ccccc3)CC2)c(C)c1`: -10.9%; for `CCNc1nc(Oc2ccc(=O)n(-c3ccccc3)n2)nc(N2CCOCC2)n1`: -4.53%. The same measure for `Cc1ccc(-n2c(SCC(=O)Nc3ccc(C(=O)O)cc3)nnc2-c2ccncc2)cc1`: 9.02%. The same measure for `NC(=O)C1CCCN(C(=S)Nc2ccccc2)C1` (stereo not shown): 8.77%; for `O=C1Nc2ccc(Br)cc2/C1=C/C1CC=CCC1` (stereo not shown): -1.66%; for `Cc1ccc(NC(=O)CN(C)C(=O)Cc2ccc(Cl)cc2Cl)cc1`: 12.4%. As to `O=C(NCC1CCCO1)c1ccccc1S(=O)(=O)c1ccc([N+](=O)[O-])cc1` (stereo not shown), the “hERG current change (%, negative = inhibition) at 10uM” value turned out to be 9.43%.

For the compound `COc1ccc(-c2csc(NC(=O)CSC(C)C(=O)Nc3cc(C)on3)n2)cc1OC` (stereo not shown), the “hERG current change (%, negative = inhibition) at 10uM” value is -6.18%. The same measure for `Cc1cc(C)c(NC(=O)Cn2ncc3ccccc32)c(C)c1`: 15.2%; for `Cn1cnc([N+](=O)[O-])c1Nc1cccc(O)c1`: 9.93%; for `O=C(O)Cc1cn(-c2ccccc2)nc1-c1ccc(Cl)cc1`: 10.7%. As to `Cc1ccc2cccc(OC(=O)N(C)c3ccccc3)c2n1`, the “hERG current change (%, negative = inhibition) at 10uM” value is 5.2%. Turning to `COc1cc(OC)cc(C(=O)NC(=S)NNC(=O)c2cnccn2)c1`, the “hERG current change (%, negative = inhibition) at 10uM” value is 6.54%. The figure for `CCn1nc(C)cc1-c1nnc(SCC(=O)Nc2ccccc2)n1CCCOC` is 16.2%. The figure for `COc1ccc(N(C(=O)c2ccco2)S(=O)(=O)c2ccc(F)cc2)cc1` is -27.3%; for `COCCNC(=O)/C(C#N)=C\c1ccc(CNS(=O)(=O)c2ccccc2)o1` it is 25%. The same measure for `CCn1cc(C(=O)N2CCN(c3cccc(C)c3C)CC2)c(=O)c2ccc(C)nc21`: -12.9%. In the case of `COc1ccc(S(=O)(=O)N2CCCCCC2)cc1N(C)S(=O)(=O)c1ccc(C)cc1`, the “hERG current change (%, negative = inhibition) at 10uM” value is reported as -39.7%.

Turning to `O=C(Nc1cccc(-c2cn3ccccc3n2)c1)c1cnccn1`, the “hERG current change (%, negative = inhibition) at 10uM” value stood at 2.16%. On to `O=C(NCCO)c1cc2c([nH]c3ccccc32)c(-c2ccccc2)n1`, for which the “hERG current change (%, negative = inhibition) at 10uM” value is -3.19%.

As to `Cc1ccc2[nH]c(=O)c(C3C(C#N)=C(N)Oc4c3ccc3cccnc43)cc2c1` (stereo not shown), the “hERG current change (%, negative = inhibition) at 10uM” value was -11.8%. The figure for `Cc1cccc(Oc2ccccc2NC(=O)C2=COCCO2)c1` is -18.4%; for `O=C(Nc1ccccc1)O[C@@H]1C[C@H]2CCC(=O)N3CC[C@@H](C1)[C@@H]23` it is 1.87%; for `S=c1[nH]nc(COc2ccccc2)n1/N=C/c1ccc(Br)s1` it is -18.8%.

With `CC(=O)c1ccc(Oc2cc(C(F)(F)F)cnc2C(N)=O)cc1`, the “hERG current change (%, negative = inhibition) at 10uM” value is reported as 13%.

For `CCOC(=O)C1=C(C)N=c2s/c(=C\c3ccc(OCC(=O)O)cc3)c(=O)n2C1c1ccc(OC(C)C)cc1` (stereo not shown), the “hERG current change (%, negative = inhibition) at 10uM” value is 9.19%.

With `CCS(=O)(=O)c1nc(S(=O)(=O)c2ccc(C)cc2)c(NCc2ccccn2)s1`, the “hERG current change (%, negative = inhibition) at 10uM” value was found to be 4.58%. The figure for `Nc1cc(=O)[nH]c(=O)n1CCc1ccccc1` is 19%; for `O=C(CSC1=NCCS1)N1CCOCC1` it is 0.0438%; for `CCN(Cc1ccccc1)S(=O)(=O)c1ccc2c(c1)NC(=O)CC(=O)N2` it is -45.4%. The same measure for `O=C(NCc1cccnc1)c1cc(Sc2cccc(Cl)c2)nc2ccccc12`: -15.4%; for `CCC(C)NC(=O)C1CCCN(S(=O)(=O)c2ccc3c(c2)CC(C)N3C(=O)C2CC2)C1` (stereo not shown): 4.46%. The figure for `CCCCOC(=O)c1ccc(N2C(=O)CC(N3CCN(C/C=C/c4ccccc4)CC3)C2=O)cc1` (stereo not shown) is -31.4%; for `O=C(N/N=C/c1ccc(O)c([N+](=O)[O-])c1)C1CC1(c1ccccc1)c1ccccc1` (stereo not shown) it is -50.7%. Turning to `Cc1nnc(NC(=O)Cn2c(=O)sc3ccccc32)s1`, the “hERG current change (%, negative = inhibition) at 10uM” value worked out at 9.97%. The figure for `O=C(CNCc1ccccc1)Nc1cccc(Cl)c1Cl.O=C(O)C(=O)O` is 5.28%; for `C=CCNC(=O)COC(=O)CNC(=O)c1cc(Cl)cc([N+](=O)[O-])c1` it is 13%; for `COc1ccccc1C(=O)N(Cc1ccc(C)o1)C1CCS(=O)(=O)C1` (stereo not shown) it is -11%.

Turning to `Cc1ccc2[nH]c(=O)c(CN(Cc3cccs3)C(=S)NCc3ccco3)cc2c1`, the “hERG current change (%, negative = inhibition) at 10uM” value is -6.94%. For `CN(c1ccccc1C(=O)Nc1ccc(F)c(Cl)c1)S(C)(=O)=O`, the “hERG current change (%, negative = inhibition) at 10uM” value was determined as 3.5%. The figure for `O=[N+]([O-])c1ccc(Cl)cc1N/N=C/c1ccncc1` is 10.1%; for `O=C1c2ccccc2C(Nc2ccc(F)c(Cl)c2)N1c1ccccn1` (stereo not shown) it is 6.21%. For the compound `CCOC(=O)N1CCN(CC(=O)Nc2c(C(=O)OC)[nH]c3ccc(Cl)cc23)CC1`, the “hERG current change (%, negative = inhibition) at 10uM” value is -21.1%. The figure for `Cc1cccc(NC(=O)C2CCN(C(=O)NC3CCCCC3)CC2)c1` is 7.39%. On to `CCn1cc(S(=O)(=O)Nc2cc(C(=O)OC)ccc2C)cn1`, for which the “hERG current change (%, negative = inhibition) at 10uM” value was -20%. The figure for `C/C(=N\NC(=S)NC1CCCCC1)c1cccc(C(F)(F)F)c1` is 7.59%. The same measure for `CC1CCCC(NC(=O)C2CCCN2S(=O)(=O)c2cccc3nsnc23)C1C` (stereo not shown): -15.4%; for `COc1ccc2cc(C(N)=O)/c(=N/NC(=O)c3ccco3)oc2c1`: -33.1%; for `Cc1cc(=O)oc2cc(OCC(=O)OCC(=O)N(C)C3CCS(=O)(=O)C3)ccc12` (stereo not shown): 0.08%. The figure for `Cc1ccc(C2C(C#N)=C(N)N(c3cccnc3)C3=C2C(=O)CCC3)c(C)c1` (stereo not shown) is -4.42%; for `O=C(Nc1nc(=S)ss1)c1c(F)cccc1F` it is 10.2%.

Turning to `Cc1cccc(NC(=O)c2cc(S(=O)(=O)c3ccccc3)ccc2Cl)c1`, the “hERG current change (%, negative = inhibition) at 10uM” value is recorded as -6.32%. The figure for `Cc1cc(=O)n2c(-c3ccc(Cl)cc3)csc2n1` is -16.7%. With `CCOc1ccc(/C=N/n2c(C3CCCCC3)n[nH]c2=S)cc1`, the “hERG current change (%, negative = inhibition) at 10uM” value stood at 18.4%.

As for `COc1ccc(/C=C/C(=O)N2CCCC2)cc1OC`, the “hERG current change (%, negative = inhibition) at 10uM” value was -7.06%. The same measure for `C=CCNC(=S)Nc1sc2c(c1C(=O)OCC)CCN(C(=O)OCC)C2`: 14%; for `O=S(=O)(c1cccc(-c2nnc3n2CCCCC3)c1)N1CCCC1`: 7.25%; for `CCc1cccc(NC(=O)CN(C)S(=O)(=O)c2cccc3nsnc23)c1`: -39.1%. The same measure for `CCOc1ccccc1NC(=O)COC(=O)C(Cc1ccccc1)NC(=O)c1ccco1` (stereo not shown): -8.33%; for `Cc1ccc(N2C(=O)CC(Sc3nc(-c4ccccc4)c4cc(Cl)ccc4n3)C2=O)c(C)c1` (stereo not shown): 3.36%; for `CN(/C=C/C(=O)C(F)(F)F)Cc1ccccc1`: 7.49%.
